Results reported in the RNAGym collection of RNA variant scans (doi:10.7554/elife.90254).
The source gives no read counts; variants with many changes may rest on few reads.

B1: OR4K15 (parent)
chain: GUUAACGGUCAUAGGCCAUGGAAACUAGGAGCACCAUUUCGCUGCCAGUGAAGAAAUGAACAAAGAAAAUCUGGGCCAGGCAGGCAUCAAAAGAAAUAGUCUUGCGCUCAACCAGAAAGUCUGUAAUCAUUUUAAGGGUA

Variants of: B1
Experiment: self-cleavage, relative activity (ratio to wild type); higher = more cleavage; in vitro, sequencing; the parent is a self-cleaving ribozyme

Row | Variant | self-cleavage
1 | A36C A47U A67U A78U | 0.51
2 | U43A A67G A125U | 0.21
3 | A22G U37C A59G U102C A126G | 0.74
4 | U103A C107U U132C | 0.01
5 | A5G A11G A51G A110U | 1.99
6 | U39C A55G G75U | 0.24
7 | U72C U87C A118G A140U | 0.12
8 | U9C G21A G53A | 1.42
9 | A86U A96G U132A | 2.54
10 | A33G U38C C40U A55G U122C | 0.59
11 | A24G U103C U120C U131C | 0.21
12 | A27C U87C U102C | 2.53
13 | A52G A54G A56U A90G | 1.18
14 | A18G U87C A111U A116G U127C | 0
15 | A51G C76A U139A | 0.08
16 | A36G A60G A118G | 1.12
17 | A54U A68G A117G | 1.45
18 | A36G U37C A52G A78G A110C A118U U124C | 0.02
19 | A23U A64G A94U | 1.62
20 | U9C A94G A98G | 1.21
21 | A24G A60G A89U | 1.06

Row | Variant | self-cleavage
22 | U39C A47G A51G A52G A66U U127C | 1.62
23 | A18G A23G U38C | 1.54
24 | U43A U57A U102C | 2.05
25 | A22G A24G U43C A55G A129U | 1.48
26 | C6A A55G U70C A89G U108C | 0.03
27 | A54G U57C A95G | 1.57
28 | U12A U37C A59G A134G | 0.86
29 | U3C A27U A66G U100A | 0.19
30 | U26A A86U A98G | 0.21
31 | A5G A22G A67G U100C | 1.63
32 | A59G U102C U103C | 0.16
33 | A18U A55G U120A U122C | 0.94
34 | C10A A56G A90G | 0.91
35 | U2C U9A A22G A90G A111G | 0.03
36 | A22G A51G A67G G83A | 0.89
37 | A18G A30G U39C U72A U127C | 0.15
38 | U39C A59U A69G U87A | 0.89
39 | G7U U87C A96G A116G A126U | 0.41
40 | A27G A59G U72G U87C A140G | 0.14
41 | U12A A47U A55G U127C | 0.44
42 | A52G A67U A82G A129G | 0.54

Row | Variant | self-cleavage
43 | A47G U57A A68U U100C | 2.19
44 | A69G A98G A129U | 0.19
45 | A59G A90G A94G U103C C113A | 0.14
46 | U9G A56G A90G U127A | 0.94
47 | G7A U26C U43A | 1.9
48 | A30G A56G A94G U132A | 2.25
49 | A68G U97C U127C | 0.68
50 | A52U A69U U130C | 0.79
51 | U2C A36G A63G A68G A91G | 0.5
52 | U2C U9C U38A A59G U100C | 1.8
53 | U2G U39A A51G A55G A126G | 0.52
54 | U39C A86C A126G | 1.35
55 | A59G A82C U87C | 0.33
56 | A22G A56G U130C | 1.66
57 | U72C U131A A134G | 0.09
58 | U26A A33G A111G | 0.02
59 | U9C U120C U132C | 1.25
60 | U57A A110G U122A | 0
61 | A11G A82U U127C | 0.06
62 | U19C A111U A117G U132C | 0.12
63 | G14A A36U U108C | 0.01

Row | Variant | self-cleavage
64 | U12G C16U U127C | 0.38
65 | U19C A23G A36U A94G | 1.34
66 | A22G A47U A66C A78G | 0.23
67 | A63U U72A U120G | 0.17
68 | A47G A54G U102A G136A U139C | 0.86
69 | A4G A68G A96U | 1.24
70 | U43C A67G U131C A135G | 1.35
71 | A82G A96U G138U | 0.5
72 | C32U A33G A52G A78G C128A | 0.35
73 | G44A A62G A111G U127C | 0.02
74 | A27U A55U A68G U97C | 0.37
75 | A18G A59G A86C A125U U131C | 0.82
76 | U9G U43C A59U A62G A92G | 1.78
77 | U2G A64G A118G | 0.87
78 | A5G A18G A23G A24G U43C A118G | 0.67
79 | A22U G44A A52G A54G A68G U122C A126G A140U | 0.48
80 | G8A G48U A66G | 0.65
81 | U19A A59U A98G U120C | 0.21
82 | G31U A59G A110G | 0.13
83 | G8A A22U A60G | 0.82
